Laboratory results taken from paper PMC4336329 (PLoS ONE, 2015).
Hit rate of the full screen: of about 310,000 compounds, about 14,000 (4.5%) showed an effect of 50% or more. The effect is printed as a negative number. The list shows a part of the results.

Molecular target: human ether-à-go-go-related gene (hERG) potassium channel (human, UniProt Q12809)
Test: primary screen, population patch clamp on CHO cells stably expressing hERG
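Note: peak tail current of the secondary pulse compared with the same well before compound.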

Chain of human ether-à-go-go-related gene (hERG) potassium channel (Q12809 whole entry, looked up): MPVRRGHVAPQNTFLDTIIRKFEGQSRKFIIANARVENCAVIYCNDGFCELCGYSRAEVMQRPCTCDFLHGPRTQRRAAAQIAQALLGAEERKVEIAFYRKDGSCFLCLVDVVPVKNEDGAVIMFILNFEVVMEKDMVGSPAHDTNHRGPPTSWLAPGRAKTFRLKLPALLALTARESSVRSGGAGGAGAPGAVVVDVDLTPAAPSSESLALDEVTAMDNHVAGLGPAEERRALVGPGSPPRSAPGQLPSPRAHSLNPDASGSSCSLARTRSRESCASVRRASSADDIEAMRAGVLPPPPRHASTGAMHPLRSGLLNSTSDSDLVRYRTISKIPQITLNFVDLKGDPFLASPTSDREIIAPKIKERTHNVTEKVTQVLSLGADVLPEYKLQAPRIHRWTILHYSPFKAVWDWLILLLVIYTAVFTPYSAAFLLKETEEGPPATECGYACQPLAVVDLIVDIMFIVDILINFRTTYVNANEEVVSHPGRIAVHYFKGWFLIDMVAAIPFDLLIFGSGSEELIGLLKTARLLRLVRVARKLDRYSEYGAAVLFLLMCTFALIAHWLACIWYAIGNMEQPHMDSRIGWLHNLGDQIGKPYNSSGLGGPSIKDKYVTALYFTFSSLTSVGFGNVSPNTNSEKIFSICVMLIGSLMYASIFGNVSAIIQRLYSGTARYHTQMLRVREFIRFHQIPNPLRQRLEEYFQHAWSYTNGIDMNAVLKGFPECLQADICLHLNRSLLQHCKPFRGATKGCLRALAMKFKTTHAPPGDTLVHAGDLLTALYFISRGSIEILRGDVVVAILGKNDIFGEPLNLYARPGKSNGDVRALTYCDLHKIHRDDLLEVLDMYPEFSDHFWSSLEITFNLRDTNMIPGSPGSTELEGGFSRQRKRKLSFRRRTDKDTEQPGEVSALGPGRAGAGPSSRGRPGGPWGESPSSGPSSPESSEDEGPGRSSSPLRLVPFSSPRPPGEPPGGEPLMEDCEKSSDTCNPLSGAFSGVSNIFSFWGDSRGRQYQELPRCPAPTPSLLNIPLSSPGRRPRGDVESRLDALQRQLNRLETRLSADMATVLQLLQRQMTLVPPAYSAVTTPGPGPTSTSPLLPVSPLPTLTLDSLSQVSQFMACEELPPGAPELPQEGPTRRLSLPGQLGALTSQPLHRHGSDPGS

| SMILES | hERG current change (%, negative = inhibition) at 10uM |
| --- | --- |
| NC(=O)c1sc2nc3c(cc2c1N)CCCCCC3 | 2.42% |
| NC(=O)C1CN(C(=O)c2cccc(S(=O)(=O)N3CCc4ccccc43)c2)c2ccccc2O1 (centres unmarked) | -3.12% |
| CCC1C/C(=C\c2cc(OC)c(OC)cc2OC)C(=O)/C(=C/c2cc(OC)c(OC)cc2OC)C1 (centres unmarked) | 15.1% |
| Cc1ccc(-n2[nH]c(C)c(/C=C3/C=Nc4ccccc43)c2=O)cc1C | -7.42% |
| CC(C)(OC(=O)c1ccc(F)cc1)c1cc2ccccc2c(=O)o1 | 3.1% |
| COC(=O)CN1C(=O)N/C(=C/c2ccc(C)o2)C1=O | -0.35% |
| Cc1ccc(Cn2ncc3c(NCCCN4CCOCC4)ncnc32)cc1 | -2.6% |
| Cc1cc(C)c[n+](C(C)C(=O)c2ccc(-c3ccccc3)cc2)c1.[Br-] (centres unmarked) | 3.92% |
| O=C(O)C1CSC2(c3ccc(Br)cc3)CCC(=O)N12 (centres unmarked) | 21.7% |
| COc1ccccc1N(C)S(=O)(=O)c1ccc(C(=O)NC2CCCCC2)cc1 | -8.31% |
| COC(CNC(=O)c1c[nH]c2ccc(S(=O)(=O)N3CCC4(CC3)OCCO4)cc2c1=O)OC | 3.64% |
| Cc1nc(SCC#N)c2c(C)c(C)sc2n1 | 12.4% |
| O=C1CCc2cc(NS(=O)(=O)c3ccccc3)cc3c2N1CC3 | -9.65% |
| Cc1ccc(SCCN2CCN(C)CC2)cc1.Cl | 6.39% |
| O=C(/C=C/c1ccc(Br)cc1)NCCCn1ccnc1 | -57% |
| CN(c1ccc(O)cc1)c1nc(O)c(C2=c3ccccc3=NC2=O)s1 | -11.2% |
| CCc1cccc2c(SCC(=O)NCC3CCCO3)nc(-c3ccc(F)cc3)nc12 (centres unmarked) | 9.66% |
| CSc1nc(=S)n(Cc2ccccc2)c(C)c1C(C)=O | -6.28% |
| CCCCCn1c(=O)c(C(=O)Nc2ccccc2C)c(O)c2ccccc21 | 24.5% |
| O=[N+]([O-])c1cn(Cc2ccccc2)cn1 | 4.23% |
| COc1ccc(C(=O)OCCc2sc[n+](CC(=O)c3ccccc3)c2C)cc1.[Br-] | -48.9% |
| COc1ccc(CN(C)CC(=O)Nc2ccc(N3CCOCC3)cc2)cc1OC | -7.84% |
| COc1ccc(NC(=O)c2cc(S(=O)(=O)N3CCS(=O)(=O)CC3)ccc2Cl)cc1 | 10.4% |

| SMILES | hERG current change (%, negative = inhibition) at 10uM |
| --- | --- |
| COc1ccccc1NS(=O)(=O)c1ccc2c(c1)n(C)c(=O)n2C | -17.9% |
| O=C(O)CCCC(=O)Nc1ccc(Oc2ncnc3cc(Cl)ccc23)nc1 | 5.39% |
| COc1ccc(S(=O)(=O)N2CCCCCC2)cc1C(=O)NCCc1ccccc1 | -65.5% |
| COc1cccc(CNC(=O)C2=C(C)C(=O)OC23CCC(C)CC3)c1 (centres unmarked) | -5.65% |
| CC1CCN(C(=O)CSc2nc(C(C)C)nc3c2c(=O)n(C)c(=O)n3C)CC1 | -4.41% |
| CC1=Nc2ccccc2N=C(NC(=O)CSc2nnnn2-c2ccccc2)C1c1ccccc1 (centres unmarked) | -15.3% |
| CC(C)c1ccc(NC(=O)C2CC(=O)Nc3nc4ccccc4n32)cc1 (centres unmarked) | 19.8% |
| O=C(NC1CCCC1)c1cc(COc2ccc3ncccc3c2)on1 | -14% |
| COC(=O)C1C/C(=N/NS(=O)(=O)c2ccc(C)cc2)CS1 (centres unmarked) | -0.137% |
| COc1ccc(C(=O)O)cc1S(=O)(=O)N1CCCc2ccccc21 | 22.4% |
| O=c1c(-c2ccc(F)cc2)coc2cc(O)ccc12 | 0.83% |
| Fc1ccc(NC(=S)Nc2cc(Cl)ccc2Cl)cc1 | 18.8% |
| Cn1cccc1/C=C1\SC(=S)N(NC(=O)c2ccc(Cl)cc2)C1=O | 14.5% |
| CC1=C(C(=O)O)N2C(=O)C(NC(=O)CCCC(=O)O)C2SC1 (centres unmarked) | 17.7% |
| Cc1cc(/C=C(\C#N)C(=O)Nc2ccc(F)cc2)c(C)n1-c1ccc(N2CCOCC2)c([N+](=O)[O-])c1 | -1.84% |
| O=C(O)C1CC=CCC1C(=O)Nc1ccccc1Cl (centres unmarked) | 6.59% |
| NC(=O)c1cc(Cl)ccc1OCC(=O)Nc1ccc2c(c1)OCO2 | -7.17% |
| O=C(CN1C(=O)CSC1=O)Nc1ccc(F)c(F)c1F | 8.08% |
| COc1ccc(/C=N/NC(=O)c2cc[n+]([O-])cc2)cc1 | 17.7% |
| O=C(CSc1nc2[nH]ncc2c(=O)[nH]1)c1ccc(Cl)cc1 | 5.9% |
| CN(C)c1ccc(C=C(c2nnnn2-c2ccccc2)c2nnnn2-c2ccccc2)cc1 | 0.928% |
| COC(=O)c1ccc(CN2CCCC(C(=O)Nc3cccc(-n4cccn4)c3)C2)cc1 (centres unmarked) | -27.4% |
| CN(C)c1ccc(/C=N/NC(=O)CSc2ccccn2)cc1 | 7.4% |

| SMILES | hERG current change (%, negative = inhibition) at 10uM |
| --- | --- |
| CCOC(=O)C1CCCN(S(=O)(=O)c2cc(C(=O)OC)n(C)c2)C1 (centres unmarked) | 22.9% |
| CCOc1ccc(CC(=O)Nc2c(C(N)=O)oc3ccccc23)cc1OCC | 13% |
| O=C(O)c1cc(-c2ccccc2)n[nH]1 | 15.2% |
| Cl.NCC(c1ccccc1)(c1ccccc1)c1ccccc1 | -15.5% |
| Cc1ccc(/C=N/N2CCOCC2)s1 | 14.4% |
| CCCCNC(=O)c1nnn(-c2ccccc2)c1N | -0.158% |
| Cc1ccc(C)c(N(CC(=O)N2CCCCCC2)S(C)(=O)=O)c1 | 13.5% |
| CC(=O)N(C)c1ccc(NC(=S)Nc2ccc(C(C)C)cc2)cc1.Cl | 13.1% |
| Cc1cc(C)cc(N(CC(=O)N2CCc3ccccc32)S(=O)(=O)c2c(C)noc2C)c1 | -10.7% |
| CC(=O)Nc1cccc(NC(=S)Nc2ccc(F)cc2F)c1 | 5.5% |
| O=C(CSc1nc2ccccc2s1)N1CCN(C(=O)c2ccco2)CC1 | -41.3% |
| O=C(CN1CCN(S(=O)(=O)c2ccc(F)cc2)CC1)Nc1ccccc1F | -56.1% |
| c1ccc(-c2cc(-c3ccccc3)on2)cc1 | -12.9% |
| COc1cc2c(cc1O)CC[n+]1cc3c(OC)c(OC)ccc3cc1-2 | -5.85% |
| Cc1ccc(NC(C)C(=O)N/N=C/c2c[nH]c3ccccc23)cc1 (centres unmarked) | 2.52% |
| CCOc1ccccc1N1CCN(CC(=O)Nc2cc(C)on2)CC1 | 11.1% |
| O=C(Cc1ccc(-n2cccc2)cc1)N1CCN(c2ccccc2F)CC1 | -15.3% |
| Cc1ccn(CCC(=O)NC2CC(C)(C)Cc3c2cnn3-c2ccccc2C)n1 (centres unmarked) | -25.6% |
| COc1ccc(NC(C)C(=O)Nc2ccc(C(C)(C)C)cc2)cc1Cl (centres unmarked) | -5.69% |
| O=C1CCCC(=O)C1=C1SCCCS1 | -5.96% |
| N#C/C(=C\Nc1ccc(Cl)cc1)S(=O)(=O)c1ccccn1 | -18.5% |
| Nc1c(-c2ccccc2)n[nH]c1-c1ccccc1 | -3.82% |
| COc1cccc(CNC(=O)Cn2nc(C)c([N+](=O)[O-])c2C)c1 | 2.44% |

| SMILES | hERG current change (%, negative = inhibition) at 10uM |
| --- | --- |
| CCOn1c(=O)c(-c2cccc([N+](=O)[O-])c2)[n+]([O-])c2ccccc21 | 0.859% |
| O=C(CSc1nccc(-c2cccs2)n1)Nc1ccccc1 | 12.2% |
| COc1cc2sc3ccc(-c4ccc(N(C)C)nc4)cc3c(=O)c2cc1OC | 10.4% |
| CCNc1nc(NC(N)=S)nc(NC(C)(C)C)n1 | 9.07% |
| CCOC(=O)C1CCN(c2c(N3CCN(Cc4ccccc4)CC3)c(=O)c2=O)CC1 | -73.4% |
| CCCCn1nnc(NC(=S)NC(=O)c2cccs2)n1 | 9.16% |
| CCCc1nnc(NC(=O)CC(=O)OCC)s1 | -8.41% |
| Cc1ccc(Nc2nnc(C)c(=O)[nH]2)cc1 | 0.721% |
| CCOC(=O)/C(C#N)=C/c1c(Oc2cccc(C)c2)nc2ccccn2c1=O | -46.8% |
| CCCCn1c(O)c(/C(CC)=N/N2CCCCC2c2cccnc2)c(=O)[nH]c1=S (centres unmarked) | -27% |
| Cc1ccc(S(=O)(=O)/C(C#N)=C/c2c(N3CCC(C(N)=O)CC3)nc3c(C)cccn3c2=O)cc1 | -71.4% |
| Nc1ccn(Cc2ccccc2F)n1 | 14.7% |
| Cc1cc(C)n2nc(SC(C)C(=O)Nc3ccc(Cl)cn3)nc2n1 (centres unmarked) | -4.34% |
| Cc1coc2cc3oc(=O)c(CCC(=O)N[C@@H](CCCNC(N)=O)C(=O)O)c(C)c3cc12 | 15.1% |
| O=C(Nc1nc2nccc(-c3ccccc3)n2n1)C(Cl)(Cl)Cl | -2.26% |
| C/C(=N\NC(=O)c1ccccc1)c1cccc(Br)c1 | -0.446% |
| CCCCN(C)Cc1c(C)[nH]c2ccc(OCC)cc2c1=O | -39.9% |
| O=C(Nc1ccccn1)c1ccc(S(=O)(=O)N2CCCC2)cc1 | -5.31% |
| CCc1cc(=O)oc2cc(OC(C)C(=O)NCC3CCC(C(=O)O)CC3)c(Cl)cc12 (centres unmarked) | 16.1% |
| COC(=O)C1=C[C@@H](C(=O)OC)[C@@H]2C3=C(C(=O)[C@]2(C)NC(=O)c2ccccc2)[C@H](C)n2c(=O)n(-c4ccccc4)c(=O)n2[C@@H]3C1 | 7.6% |
